Test results: the supplement of paper PMC4604168 (melanoma cell lines)
The list shows a part of the results. Most values come without repeats; read them as rough.

What was measured:
Experiment in all cases: cell count relative to DMSO control; melanoma cells; higher = more viable cells
Settings in all cases: library dose: low library concentration; 72 h
[1] = test system: MeWo
[2] = test system: RPMI7951
[3] = test system: RVH-421
[4] = test system: SkMel28
[5] = test system: SkMel30
[6] = test system: SkMel5
[7] = test system: UACC257
[8] = test system: UACC62
[9] = test system: MZ2-MEL
[10] = test system: SkMel2
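Further: cell number obtained by counting DAPI-stained nuclei in high-throughput microscope images with image analysis software, screen run in 1,536-well plates.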

| SMILES | cell count [1] | cell count [2] | cell count [3] | cell count [4] | cell count [5] | cell count [6] | cell count [7] | cell count [8] | cell count [9] | cell count [10] |
| --- | --- | --- | --- | --- | --- | --- | --- | --- | --- | --- |
| OCCn1cc(-c2cnc3nnn(Cc4ccc5ncccc5c4)c3n2)cn1 + CCN(CC)CCCCNc1ncc2cc(-c3cc(OC)cc(OC)c3)c(NC(=O)NC(C)(C)C)nc2n1 [PD173074] (first compound 1 µM, partner dose 0.1 µM) | 105% | 108% | 116% | 110% | 104% | 96.2% | 102% | 110% |  |  |
| CN(C)S(=O)(=O)c1ccc2c(c1)/C(=C/c1cc3c([nH]1)CCCC3)C(=O)N2 + Cn1cc(/C=C2\C(=O)Nc3cccnc32)c2ccccc21 [GW441756] (first compound 0.4 µM, partner dose 0.4 µM) | 80.5% | 105% | 96.4% | 79.1% | 101% | 85.6% | 72% | 86.2% | 106% |  |
| OCCn1cc(-c2cnc3nnn(Cc4ccc5ncccc5c4)c3n2)cn1 + c1cc(-c2cnn3cc(-c4ccc(OCCN5CCCCC5)cc4)cnc23)ccn1 [Dorsomorphin] (first compound 1 µM, partner dose 0.4 µM) | 98.8% | 91.3% | 118% | 90.2% | 110% | 99% | 82.2% | 103% | 97.5% |  |
| CO[C@@H]1[C@H](N(C)C(=O)c2ccccc2)C[C@H]2O[C@]1(C)n1c3ccccc3c3c4c(c5c6ccccc6n2c5c31)C(=O)NC4 [Midostaurin] + Cc1cc([N+](=O)[O-])ccc1NS(=O)(=O)c1cc(Cl)ccc1Cl [FH535] (first compound 0.08 µM, partner dose 1 µM) | 79.1% | 81.9% | 90.3% | 81.8% | 89.4% | 76.9% | 82.8% | 67.4% | 93.2% |  |
| NC(=O)Nc1cc(-c2cccc(F)c2)sc1C(=O)N[C@H]1CCCNC1 + COc1ccc2c(c1)CCC1C2CCC2(C)C(NCCCCCCN3C(=O)C=CC3=O)CCC12 [U73122] (first compound 0.02 µM, partner dose 0.4 µM) | 105% | 93.8% | 103% | 114% | 118% | 100% | 115% | 99.5% | 102% |  |
| CO[C@@H]1[C@H](N(C)C(=O)c2ccccc2)C[C@H]2O[C@]1(C)n1c3ccccc3c3c4c(c5c6ccccc6n2c5c31)C(=O)NC4 [Midostaurin] + c1cc(-c2cnn3cc(-c4ccc(OCCN5CCCCC5)cc4)cnc23)ccn1 [Dorsomorphin] (first compound 0.08 µM, partner dose 0.4 µM) | 92.9% | 99.2% | 84.8% | 99.3% | 114% | 88.3% | 88.4% | 104% |  |  |
| NC(=O)Nc1cc(-c2cccc(F)c2)sc1C(=O)N[C@H]1CCCNC1 + CCc1ccc(CCOc2ccc(CC3SC(=O)NC3=O)cc2)nc1 [pioglitazone] (first compound 0.02 µM, partner dose 2 µM) | 94.8% | 101% | 112% | 98.9% | 118% | 94.2% | 102% | 101% | 98.5% |  |
| CN(C)S(=O)(=O)c1ccc2c(c1)/C(=C/c1cc3c([nH]1)CCCC3)C(=O)N2 + O=c1cc(-c2cccc3c2Sc2ccccc2S3)oc(N2CCOCC2)c1 [KU55933] (first compound 0.4 µM, partner dose 1 µM) | 102% | 103% | 86.7% | 74.8% | 99.6% | 88.8% | 89.7% | 78.3% | 99.9% |  |
| Cc1nc(Nc2ncc(C(=O)Nc3c(C)cccc3Cl)s2)cc(N2CCN(CCO)CC2)n1 [dasatanib] + C[C@]1(c2nc3c(C(N)=O)cccc3[nH]2)CCCN1 [Veliparib] (first compound 0.004 µM, partner dose 1.4 µM) | 89.8% | 65% | 95.4% | 64.1% | 79% |  |  | 69.1% |  |  |
| Cc1nc(Nc2ncc(C(=O)Nc3c(C)cccc3Cl)s2)cc(N2CCN(CCO)CC2)n1 [dasatanib] + NC(=O)Nc1cc(-c2cccc(F)c2)sc1C(=O)N[C@H]1CCCNC1 [AZD7762] (first compound 0.004 µM, partner dose 0.02 µM) | 102% | 65.7% | 97.4% | 79.1% | 96.8% | 93.7% | 90.3% | 98.1% |  |  |
| OCCn1cc(-c2cnc3nnn(Cc4ccc5ncccc5c4)c3n2)cn1 + COc1ccc(COc2ccc(Cc3cnc(N)nc3N)cc2OC)cc1 [GW2580] (first compound 1 µM, partner dose 1 µM) | 99.7% | 104% | 111% | 85.5% | 98.2% | 96% | 93.7% | 91.6% | 96.3% |  |
| C=CCn1c(=O)c2cnc(Nc3ccc(N4CCN(C)CC4)cc3)nc2n1-c1cccc(C(C)(C)O)n1 + CN(NC(=O)CC(=O)NN(C)C(=S)c1ccccc1)C(=S)c1ccccc1 [STA4783] (first compound 0.02 µM, partner dose 0.006 µM) | 97.4% | 77.3% | 82% | 97.6% | 117% | 87.8% | 100% | 81.9% |  | 102% |
